# Data from PubChem BioAssay (NCATS).
# “And” between values parts separate entries of the source, which are not always exact repeats. Identical values can stand only once. The list shows a part of the results. The main result of the screen is listed elsewhere. These columns were measured beside it and carry no call. The list favours compounds with an active or inconclusive main result. For some of these results: Words in brackets tell the shape of the fitted curve; partial curves, single points and poor fits give uncertain potencies.
# Key:
# [1] = qHTS Assay for Lipid Storage Modulators (AID 1519); settings: Drosophila S3 cells, BODIPY lipid droplet/cell ratio, laser cytometry, cells loaded with oleic acid
# Outline: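 Cells seeded at 5,000 per well were treated with compounds over a concentration series and loaded with oleic acid (400 uM, as added). Lipid droplet fluorescence (488 nm excitation, 500-530 nm channel) was read by laser-scanning cytometry and normalized to 20 uM Triacsin C.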
# [2] = qHTS Assay for Modulators of Human Peripheral Myelin Protein 22 (PMP22) Expression/Activity (AID 1967); settings: Cell-based PMP22 reporter, dual-color luciferase ratio
# Outline: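 Quantitative HTS in a mouse Schwann cell line expressing dual click beetle luciferases: Pmp22 promoter (green) and control EF-alpha promoter (red). After 24h treatment, corrected green/red signal ratio gave %Activity relative to untreated cells.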
# [3] = qHTS Validation Assay to Find Inhibitors of Chronic Active B-Cell Receptor Signaling (AID 485345); settings: ABC-DLBCL cells, chronic BCR signaling reporter
# Outline: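 TMD8 ABC-DLBCL cells stably carrying doxycycline-inducible IkappaBalpha–green luciferase fusion plus unfused red luciferase; compounds 46 uM to 3 nM, 4 h at 37C with doxycycline. Corrected green/red luminescence ratio normalized to 10 uM MG-132 and basal cell wells; curves fitted.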
# [4] = qHTS assay for small molecule antagonists of glucocorticoid receptor signaling (AID 588533); settings: HeLa MMTV-bla, GRE beta-lactamase ratio, antagonist mode, 18 h; measured here: W530 channel AC50;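 further: cells stimulated with 2 nM dexamethasone as agonist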
# [5] = qHTS assay for small molecule antagonists of peroxisome proliferator-activated receptor delta signaling (AID 588535); settings: HEK293T PPARd-UAS-bla, beta-lactamase FRET ratio, 18 h; 460 nm channel;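 further: cells co-treated with a PPAR-delta agonist as stimulator during compound exposure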
# Outline: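 Antagonist-mode beta-lactamase reporter (GeneBLAzer PPAR-delta-UAS-bla) in HEK293T cells, 2% charcoal/dextran FBS, 4000 cells/well. Compound titrations, 18 h at 37 C; CCF4 ratio read, IC50 and efficacy from Hill fits.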
# [6] = qHTS assay for small molecule antagonists of vitamin D receptor signaling (AID 588541); settings: HEK293T VDR-UAS-bla, beta-lactamase ratio, antagonist mode; measured here: W460 blue channel (cell viability)
# [7] = qHTS assay for small molecule agonists of retinoid X receptor alpha signaling (AID 588544); settings: HEK293T RXRa-UAS-bla, beta-lactamase reporter, 18 h; 530 nm emission
# [8] = qHTS Assay for Inhibitors of PDE-IV (AID 607); settings: HEK293 ACTOne CNG channel cells, membrane potential fluorescence; measured here: parental cell counter-screen;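 further: parental cells stimulated with forskolin 10 µM plus RO 20-1724 100 µM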
# Outline: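 Live HEK293 cells with a modified cyclic nucleotide-gated (CNG) channel report intracellular cAMP via membrane-potential dye fluorescence (ex 535/em 590 nm). Endogenous PDE-IV was targeted. Compounds were tested at up to 22.9 uM final; RO 20-1724 100 uM served as control.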
# [9] = qHTS assay for small molecule antagonists of androgen receptor signaling (AID 588516); settings: AR-UAS-bla HEK293, beta-lactamase ratio, antagonist mode, 16 h; measured here: W460 blue channel fit
# Outline: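 Antagonist mode: inhibition of R1881-stimulated (10 nM final) bla reporter in GeneBLAzer AR HEK 293 cells, 16 h at 37C, compounds titrated. IC50 and efficacy from Hill-equation fits of 405/460–530 nm FRET ratios.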
# [10] = qHTS assay for small molecule antagonists of peroxisome proliferator-activated receptor gamma signaling (AID 588537); settings: HEK293 PPARg-UAS-bla, beta-lactamase ratio, antagonist mode; measured here: W460 blue channel
# Outline: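 PPARγ-UAS-bla HEK293 cells (3000/well) in 1% charcoal/dextran-stripped FBS are treated with compound, then stimulated with 50 nM rosiglitazone for 16 h at 37 °C. Read-out is CCF4 β-lactamase fluorescence after 2 h at RT. IC50 comes from Hill fits normalised to rosiglitazone and DMSO.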
# [11] = qHTS assay for small molecule antagonists of retinoid X receptor alpha signaling (AID 588546); settings: HEK293T RXRa-UAS-bla, beta-lactamase ratio, antagonist mode; measured here: W530 green channel, cytotoxicity proxy;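 further: cells stimulated with 9-cis-retinoic acid as agonist; on the % scale 0 is the no-effect control and ±100 the full control effect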
# Outline: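 Beta-lactamase reporter inhibition, read as CCF4 fluorescence ratio (ex 405, em 460/530 nm) after 2 h at RT. HEK293T UAS-bla cells, 2500/well, were stimulated with 9-cis-RA at 500 or 100 nM final alongside test compound for 18 h at 37 C.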
# [12] = S16 Schwann cell PMP22 intronic element beta-lactamase assay (AID 624044); settings: S16 rat Schwann cells, PMP22 element beta-lactamase FRET, 24 h; measured here: 460 nm blue channel; further: nearly all actives have a fitted effect of over 15% in size
# Outline: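 Rat S16 Schwann cells with beta-Lac driven by a PMP22 intronic element, compound-treated 24 h at 37 °C. LiveBLAzer FRET B/G read: 460 nm normalized to potassium clavulanate vs DMSO; 535 nm FRET as viability; concentration-effect curves classified.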
# [13] = measured here: cell count channel max response
# [14] = measured here: cell number channel AC50
# [15] = measured here: lipid (BODIPY) channel AC50
# [16] = measured here: lipid channel max response
# [17] = measured here: green reporter channel AC50, mouse Pmp22 promoter in mouse Schwann cells
# [18] = measured here: red reporter channel AC50, EF-alpha promoter control reporter in MSC80 mouse Schwann cells
# [19] = measured here: CBR control luciferase (viability counter)
# [20] = measured here: CBG/CBR ratio read-out
# Tags describe the fitted curve by direction and shape.
smiles,measurement,setting,value
O=[N+]([O-])c1cc(O)c(O)c([N+](=O)[O-])c1,max response,[1]; [13],40.7%
same,AC50,[1]; [14],"25.1 µM [rising, partial curve, poor fit]"
same,AC50,[1]; [15],"25.1 µM [rising, partial curve, poor fit]"
same,max response,[1]; [16],50.4%
same,AC50,[2]; [17],"75.7 µM [rising, single point]"
same,AC50,[2]; [18],"84.9 µM [falling, single point]"
CCCCCCCCCCCCCC(=O)O[C@@H]1[C@@H](C)[C@@]2(O)[C@@H](C=C(CO)C[C@@]3(O)C(=O)C(C)=C[C@@H]23)C2C(C)(C)[C@@]21OC(C)=O (stereo partly specified),max response,[1]; [13],61.7%
same,AC50,[1]; [14],"44.7 µM [rising, single point]"
same,AC50,[1]; [15],"44.7 µM [rising, single point]"
same,max response,[1]; [16],49.7%
same,AC50,[2]; [17],"53.6 µM [falling, partial curve]"
same,AC50,[2]; [18],"42.6 µM [falling, partial curve]"
same,AC50,[3]; [19],"0.0517 µM [rising, full curve]"
O=c1c(O)c(-c2ccc(O)c(O)c2)oc2cc(O)cc(O)c12,max response,[1]; [13],-29.1% and -49.6% and 34.2%
same,AC50,[1]; [14],"25.1 µM [falling, single point]"
same,AC50,[1]; [15],"22.4 µM [falling, single point] and 39.8 µM [falling, partial curve, poor fit] and 25.1 µM [falling, single point]"
same,max response,[1]; [16],-34.2% and -63.5% and 35.3%
same,AC50,[2]; [17],"6.01 µM [rising, single point]"
same,AC50,[2]; [18],"47.8 µM [falling, partial curve, poor fit]"
same,AC50,[3]; [20],"23.1 µM [falling, single point]"
Oc1ccc2c3c1O[C@H]1c4[nH]c5ccccc5c4C[C@@]4(O)C(C2)N(CC2CC2)CCC314 (stereo partly specified),max response,[1]; [13],36.5%
same,AC50,[1]; [14],"39.8 µM [rising, single point]"
same,AC50,[1]; [15],"39.8 µM [rising, single point]"
same,max response,[1]; [16],37.7%
same,AC50,[2]; [17],"33.8 µM [falling, partial curve]"
same,AC50,[2]; [18],"37.9 µM [falling, partial curve]"
same,AC50,[3]; [19],"20.6 µM [falling, single point]"
N#Cc1c(Cl)c(Cl)c(Cl)c(C#N)c1Cl,max response,[1]; [13],-44.7%
same,AC50,[1]; [14],"2.24 µM [falling, full curve]"
same,AC50,[1]; [15],"1.58 µM [falling, full curve]"
same,max response,[1]; [16],-98%
same,AC50,[4],"35.5 µM [falling, partial curve, poor fit]"
same,max response,[5],-129%
same,AC50,[6],"4.47 µM [falling, full curve]"
same,max response,[7],-28%
O=c1c2ccccc2[se]n1-c1ccccc1,AC50,[8],"6.31 µM [rising, partial curve, poor fit]"
same,max response,[1]; [13],-55.9% and -38.8%
same,AC50,[1]; [14],"15.8 µM [falling, single point] and 15.8 µM [falling, partial curve, poor fit]"
same,AC50,[1]; [15],"15.8 µM [falling, single point] and 15.8 µM [falling, full curve, poor fit]"
same,max response,[1]; [16],-81% and -42.1%
same,AC50,[2]; [17],"42.6 µM [falling, full curve]"
same,AC50,[2]; [18],"33.8 µM [falling, full curve]"
same,AC50,[3]; [20],"18.4 µM [falling, partial curve]"
same,AC50,[3]; [19],"16.4 µM [falling, partial curve]"
O=C(Oc1ccccc1)N1CCC[C@@]2(CCN(Cc3nccs3)C2)C1,AC50,[8],"0.398 µM [rising, single point]"
same,max response,[1]; [13],35.8%
same,AC50,[1]; [14],"1.26 µM [rising, full curve]"
same,AC50,[1]; [15],"0.355 µM [rising, full curve]"
same,max response,[1]; [16],44.8%
COC(C)(C)CCCC(C)C/C=C/C(C)=C/C(=O)OC(C)C (stereo unspecified),max response,[1]; [13],30.1%
same,AC50,[1]; [14],"20 µM [rising, partial curve]"
same,AC50,[1]; [15],"35.5 µM [rising, partial curve]"
same,max response,[1]; [16],56.1%
same,AC50,[9],"0.0112 µM [falling, full curve, poor fit]"
same,AC50,[10],"50.1 µM [rising, single point] and 50.1 µM [falling, partial curve, poor fit]"
same,max response,[7],45.6%
N#Cc1nn(-c2c(Cl)cc(C(F)(F)F)cc2Cl)c(N)c1S(=O)C(F)(F)F (stereo unspecified),max response,[1]; [13],-35.6%
same,AC50,[1]; [14],"11.2 µM [falling, partial curve, poor fit]"
same,AC50,[1]; [15],"2.51 µM [falling, partial curve, poor fit]"
same,max response,[1]; [16],-39.6%
same,max response,[5],3.29%
same,max response,[7],15.5%
same,max response,[11],1.26%
same,AC50,[12],"25.1 µM [falling, partial curve, poor fit]"
N#CC(C#N)=Cc1cc(O)c(O)c(O)c1,max response,[1]; [13],27%
same,AC50,[1]; [14],"3.55 µM [falling, partial curve, poor fit]"
same,AC50,[1]; [15],"6.31 µM [falling, partial curve, poor fit]"
same,max response,[1]; [16],22.9%
same,AC50,[2]; [18],"67.5 µM [falling, partial curve]"
same,AC50,[12],"15.8 µM [falling, partial curve, poor fit]"
OC1(c2ccc(Cl)cc2)CCN(Cc2c[nH]c3ccccc23)CC1,max response,[1]; [13],42.5%
same,AC50,[1]; [14],"35.5 µM [rising, single point]"
same,AC50,[1]; [15],"35.5 µM [rising, single point]"
same,max response,[1]; [16],49.3%
same,AC50,[2]; [17],"37.9 µM [falling, partial curve]"
same,AC50,[2]; [18],"42.6 µM [falling, full curve]"
